{"source": "patent US8067379B2", "about": "“Sulfur compounds as inhibitors of hepatitis C virus NS3 serine protease” (Schering Corporation, priority 2004, dated 2011)"}
{"target": "Recombinant heterodimeric HCV NS3/NS4A protease (strain 1a) (Hepatitis C virus genotype 1a, UniProt P27958)", "test": "Spectrophotometric assay for HCV serine protease inhibitory activity (chromogenic ester substrates)", "type": "biochemical", "conditions": "Table 3A; cells that print a number instead of a class symbol; read-out: Ki* Range", "units": {"Ki": "nM"}}
{"smiles": "CC(C)(C)[C@H](NC(=O)NC1(CS(=O)(=O)C(C)(C)C)CCCCC1)C(=O)N1C[C@H]2[C@@H]([C@H]1C(=O)N[C@@H](CCC1CC1)C(=O)C(=O)NC1CC1)C2(C)C", "note": "[Compound 730]", "Ki": 5.6}
{"smiles": "CC(C)(C)[C@H](NC(=O)NC1(CS(=O)(=O)C(C)(C)C)CCCCC1)C(=O)N1C[C@H]2[C@@H]([C@H]1C(=O)N[C@H](CCC1CC1)C(=O)C(=O)NC1CC1)C2(C)C", "note": "[Compound 731]", "Ki": 64}
{"target": "Recombinant heterodimeric HCV NS3/NS4A protease (strain 1a) (Hepatitis C virus genotype 1a, UniProt P27958)", "test": "Spectrophotometric assay for HCV serine protease inhibitory activity (chromogenic ester substrates)", "type": "biochemical", "conditions": "Table 3A; class symbols; read-out: Ki* Range", "units": {"Ki": "nM"}}
{"smiles": "C=CCNC(=O)C(=O)[C@H](CC1CC1)NC(=O)[C@@H]1[C@@H]2[C@H](CN1C(=O)[C@@H](NC(=O)NC1(CS(=O)(=O)C3CCCC3)CCCCC1)C(C)(C)C)C2(C)C", "note": "[Compound 702]", "Ki": "< 75"}
{"smiles": "C=CCNC(=O)C(=O)[C@H](CCC1CC1)NC(=O)[C@@H]1[C@@H]2[C@H](CN1C(=O)[C@@H](NC(=O)NC1(CS(=O)(=O)C3CCCC3)CCCCC1)C(C)(C)C)C2(C)C", "note": "[Compound 703]", "Ki": "< 75"}
{"smiles": "CCC[C@H](NC(=O)[C@@H]1[C@@H]2[C@H](CN1C(=O)[C@@H](NC(=O)NC1(CS(=O)(=O)C3CCCC3)CCCCC1)C(C)(C)C)C2(C)C)C(=O)C(=O)NC1CC1", "note": "[Compound 704]", "Ki": "< 75"}
{"smiles": "C=CCNC(=O)C(=O)C(CCC1CC1)NC(=O)[C@@H]1[C@@H]2[C@H](CN1C(=O)[C@@H](NC(=O)NC1(CS(=O)(=O)C(C)(C)COC3CCCCO3)CCCCC1)C(C)(C)C)C2(C)C", "note": "(stereo partly drawn) [Compound 705]", "Ki": "< 75"}
{"smiles": "CC(C)(C)[C@H](NC(=O)NC1(CS(=O)(=O)C(C)(C)COC2CCCCO2)CCCCC1)C(=O)N1C[C@H]2[C@@H]([C@H]1C(=O)NC(CCC1CC1)C(=O)C(=O)NC1CC1)C2(C)C", "note": "(stereo partly drawn) [Compound 706]", "Ki": "< 75"}
{"smiles": "CCCC(NC(=O)[C@@H]1[C@@H]2[C@H](CN1C(=O)[C@@H](NC(=O)NC1(CS(=O)(=O)C(C)(C)COC3CCCCO3)CCCCC1)C(C)(C)C)C2(C)C)C(=O)C(=O)NC1CC1", "note": "(stereo partly drawn) [Compound 707]", "Ki": "< 75"}
{"smiles": "C=CCNC(=O)C(=O)C(CCC)NC(=O)[C@@H]1[C@@H]2[C@H](CN1C(=O)[C@@H](NC(=O)NC1(CS(=O)(=O)C(C)(C)COC3CCCCO3)CCCCC1)C(C)(C)C)C2(C)C", "note": "(stereo partly drawn) [Compound 708]", "Ki": "< 75"}
{"smiles": "C=CCNC(=O)C(=O)C(CCC1CC1)NC(=O)[C@@H]1[C@@H]2[C@H](CN1C(=O)[C@@H](NC(=O)NC1(CS(=O)(=O)C(C)(C)CO)CCCCC1)C(C)(C)C)C2(C)C", "note": "(stereo partly drawn) [Compound 709]", "Ki": "< 75"}
{"smiles": "CC(C)(C)[C@H](NC(=O)NC1(CS(=O)(=O)C(C)(C)CO)CCCCC1)C(=O)N1C[C@H]2[C@@H]([C@H]1C(=O)NC(CCC1CC1)C(=O)C(=O)NC1CC1)C2(C)C", "note": "(stereo partly drawn) [Compound 710]", "Ki": "< 75"}
{"smiles": "C=CCNC(=O)C(=O)C(CCC1CC1)NC(=O)C1C2C(CN1C(=O)C(NC(=O)NC1(C[S@TB4](=O)(=O)C3(C)CCCCC3)CCCCC1)C(C)(C)C)C2(C)C", "note": "(stereo not drawn) [Compound 711]", "Ki": "< 75"}
{"smiles": "C=CCNC(=O)C(=O)C(CC1CC1)NC(=O)C1C2C(CN1C(=O)C(NC(=O)NC1(C[S@TB4](=O)(=O)C3(C)CCCCC3)CCCCC1)C(C)(C)C)C2(C)C", "note": "(stereo not drawn) [Compound 712]", "Ki": "< 75"}
{"smiles": "C#CCNC(=O)C(=O)[C@H](CCC1CC1)NC(=O)[C@@H]1[C@@H]2[C@H](CN1C(=O)[C@@H](NC(=O)NC1(CS(=O)(=O)C(C)(C)C)CCCCC1)C(C)(C)C)C2(C)C", "note": "[Compound 721]", "Ki": "< 75"}
{"smiles": "C=CCNC(=O)C(=O)[C@H](CC1CC1)NC(=O)[C@@H]1[C@@H]2[C@H](CN1C(=O)[C@@H](NC(=O)NC1(CS(=O)(=O)C(C)(C)C)CCCCC1)C(C)(C)C)C2(Cl)Cl", "note": "[Compound 722]", "Ki": "< 75"}
{"smiles": "CCC[C@H](NC(=O)[C@@H]1[C@@H]2[C@H](CN1C(=O)[C@@H](NC(=O)NC1(CS(=O)(=O)C(C)(C)C)CCCCC1)C(C)(C)C)C2(Cl)Cl)C(=O)C(=O)NC1CC1", "note": "[Compound 723]", "Ki": "< 75"}
{"smiles": "C=CCNC(=O)C(=O)[C@H](CCCC)NC(=O)[C@@H]1CC2(CN1C(=O)[C@@H](NC(=O)NC1(CS(=O)(=O)C(C)(C)C)CCCCC1)C(C)(C)C)SCCCS2", "note": "[Compound 728]", "Ki": "< 75"}
{"smiles": "C=CCNC(=O)C(=O)[C@H](CC1CC1)NC(=O)[C@@H]1[C@@H]2[C@H](CN1C(=O)[C@@H](NC(=O)NC1(C3CCCCS3(=O)=O)CCCCC1)C(C)(C)C)C2(C)C", "note": "(stereo partly drawn) [Compound 729]", "Ki": "< 75"}
